Laboratory results taken from publication PMC2970546.
Results are given in words; binding and its absence hold for the method and conditions named. Some entries that bind do so weakly or less than the wild type. Values belong to the binder of their own block, whether it stands above or below them.

Key:
Experiment in all cases: two-hybrid; LexA-septin bait (modified pBTM116) in yeast L40 screened against human fetal brain and human leukocyte cDNA libraries (pACT2); minimal medium without Trp, Leu, His, with 5 mM 3-AT; every clone confirmed one-to-one with its bait by beta-galactosidase filter assay, empty bait vector as control
[1] = biological target: T1, human septin 2 (human), Q15019; details: remark: other sources report otherwise
T1 chain: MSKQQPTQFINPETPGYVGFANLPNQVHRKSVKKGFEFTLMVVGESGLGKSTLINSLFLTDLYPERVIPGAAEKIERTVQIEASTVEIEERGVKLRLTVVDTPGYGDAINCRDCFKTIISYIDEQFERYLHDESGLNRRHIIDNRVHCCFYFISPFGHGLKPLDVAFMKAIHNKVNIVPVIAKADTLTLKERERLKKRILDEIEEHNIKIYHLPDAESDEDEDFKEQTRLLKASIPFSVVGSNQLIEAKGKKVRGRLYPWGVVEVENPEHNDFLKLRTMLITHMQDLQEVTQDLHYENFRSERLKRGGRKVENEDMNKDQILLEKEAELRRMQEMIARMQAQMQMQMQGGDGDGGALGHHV

[2] = biological target: T2, human septin 7 (human), Q16181; details: remark: other sources report otherwise
T2 chain: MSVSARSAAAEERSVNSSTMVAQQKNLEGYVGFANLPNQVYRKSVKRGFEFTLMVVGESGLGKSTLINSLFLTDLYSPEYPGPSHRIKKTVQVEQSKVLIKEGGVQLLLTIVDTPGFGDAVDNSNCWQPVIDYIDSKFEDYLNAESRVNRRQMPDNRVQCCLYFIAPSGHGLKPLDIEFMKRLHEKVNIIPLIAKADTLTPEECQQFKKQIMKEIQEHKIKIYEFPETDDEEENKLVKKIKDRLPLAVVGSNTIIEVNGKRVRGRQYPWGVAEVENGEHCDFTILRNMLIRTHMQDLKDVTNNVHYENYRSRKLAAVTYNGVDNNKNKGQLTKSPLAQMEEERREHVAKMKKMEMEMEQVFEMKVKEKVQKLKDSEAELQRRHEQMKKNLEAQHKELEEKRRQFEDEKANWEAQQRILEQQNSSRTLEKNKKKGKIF

[3] = biological target: T3, human septin 9, transcript variant 3, protein isoform c, full length (human), Q9UHD8; details: remark: other sources report otherwise
T3 chain: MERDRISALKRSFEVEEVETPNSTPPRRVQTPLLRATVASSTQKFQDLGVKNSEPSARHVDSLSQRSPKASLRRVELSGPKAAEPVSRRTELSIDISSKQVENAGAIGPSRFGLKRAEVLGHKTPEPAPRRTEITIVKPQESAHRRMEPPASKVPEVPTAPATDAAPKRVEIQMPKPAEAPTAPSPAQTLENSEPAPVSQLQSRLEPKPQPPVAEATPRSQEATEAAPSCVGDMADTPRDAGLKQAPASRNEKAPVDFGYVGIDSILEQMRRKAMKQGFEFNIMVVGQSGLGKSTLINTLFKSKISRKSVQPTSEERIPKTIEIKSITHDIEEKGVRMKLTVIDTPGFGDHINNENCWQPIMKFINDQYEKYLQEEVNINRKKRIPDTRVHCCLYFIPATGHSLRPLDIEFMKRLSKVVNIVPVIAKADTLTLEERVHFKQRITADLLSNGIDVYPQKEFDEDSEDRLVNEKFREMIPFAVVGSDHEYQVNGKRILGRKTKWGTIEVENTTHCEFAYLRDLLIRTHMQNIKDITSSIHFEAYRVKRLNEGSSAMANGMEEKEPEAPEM

[4] = biological target: T4, human septin 7 (human) (UniProt Q16181)
T4 sequence: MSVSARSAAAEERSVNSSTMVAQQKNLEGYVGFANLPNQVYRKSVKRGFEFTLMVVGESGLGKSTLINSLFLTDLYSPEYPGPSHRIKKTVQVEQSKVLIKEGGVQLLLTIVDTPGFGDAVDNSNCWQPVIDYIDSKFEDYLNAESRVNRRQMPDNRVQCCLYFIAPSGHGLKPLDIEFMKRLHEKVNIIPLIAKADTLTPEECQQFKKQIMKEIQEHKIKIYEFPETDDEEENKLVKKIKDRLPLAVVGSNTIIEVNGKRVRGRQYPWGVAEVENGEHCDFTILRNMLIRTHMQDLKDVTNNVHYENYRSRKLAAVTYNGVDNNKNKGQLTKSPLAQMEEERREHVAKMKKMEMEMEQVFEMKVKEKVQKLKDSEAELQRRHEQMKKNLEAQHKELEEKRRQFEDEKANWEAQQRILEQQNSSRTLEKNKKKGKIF

[5] = biological target: T5, human septin 2 (human) (UniProt Q15019)
T5 sequence: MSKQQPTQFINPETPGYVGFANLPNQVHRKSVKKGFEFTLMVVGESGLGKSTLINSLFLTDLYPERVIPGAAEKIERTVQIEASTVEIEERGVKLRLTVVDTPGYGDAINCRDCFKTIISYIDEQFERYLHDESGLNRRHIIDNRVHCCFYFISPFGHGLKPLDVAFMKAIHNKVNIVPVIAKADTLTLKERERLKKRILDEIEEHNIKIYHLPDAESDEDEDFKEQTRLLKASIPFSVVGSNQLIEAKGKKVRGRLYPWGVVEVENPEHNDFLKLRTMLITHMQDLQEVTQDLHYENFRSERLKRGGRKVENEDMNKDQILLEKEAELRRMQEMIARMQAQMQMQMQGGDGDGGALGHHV

[6] = biological target: T6, human septin 1 (human) (UniProt Q8WYJ6)
T6 sequence: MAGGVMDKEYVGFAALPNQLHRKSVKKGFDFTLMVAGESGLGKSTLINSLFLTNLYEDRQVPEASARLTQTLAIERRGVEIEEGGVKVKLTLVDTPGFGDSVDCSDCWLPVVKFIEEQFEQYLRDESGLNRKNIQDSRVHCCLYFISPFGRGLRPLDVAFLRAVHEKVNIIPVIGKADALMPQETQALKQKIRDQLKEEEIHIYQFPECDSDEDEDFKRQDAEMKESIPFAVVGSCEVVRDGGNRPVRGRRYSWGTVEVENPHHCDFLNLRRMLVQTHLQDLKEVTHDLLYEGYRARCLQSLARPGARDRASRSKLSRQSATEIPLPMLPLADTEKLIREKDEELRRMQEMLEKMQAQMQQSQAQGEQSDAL

[7] = biological target: T7, human septin 5 (human) (UniProt Q99719)
T7 sequence: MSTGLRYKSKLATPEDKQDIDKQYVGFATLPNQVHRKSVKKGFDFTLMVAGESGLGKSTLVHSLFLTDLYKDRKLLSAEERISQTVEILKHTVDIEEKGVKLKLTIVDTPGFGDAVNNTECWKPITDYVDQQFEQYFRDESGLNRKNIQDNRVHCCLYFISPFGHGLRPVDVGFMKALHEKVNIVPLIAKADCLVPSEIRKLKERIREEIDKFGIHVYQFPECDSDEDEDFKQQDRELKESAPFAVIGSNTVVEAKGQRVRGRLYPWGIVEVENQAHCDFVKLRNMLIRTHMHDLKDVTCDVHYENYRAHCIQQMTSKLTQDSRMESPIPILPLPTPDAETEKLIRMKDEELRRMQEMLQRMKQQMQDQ

[8] = biological target: T8, human septin 9 N-terminal region (amino acid residues 1-269) (human) (UniProt Q9UHD8)
T8 sequence: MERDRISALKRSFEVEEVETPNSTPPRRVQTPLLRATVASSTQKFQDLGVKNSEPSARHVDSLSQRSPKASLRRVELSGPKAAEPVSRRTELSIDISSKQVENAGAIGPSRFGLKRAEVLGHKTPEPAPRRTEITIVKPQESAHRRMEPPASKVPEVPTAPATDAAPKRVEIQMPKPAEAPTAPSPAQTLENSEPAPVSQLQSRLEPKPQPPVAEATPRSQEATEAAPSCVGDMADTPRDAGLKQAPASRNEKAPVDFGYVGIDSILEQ

[9] = biological target: T9, human septin 9, transcript variant 3, protein isoform c, full length (human) (UniProt Q9UHD8)
T9 sequence: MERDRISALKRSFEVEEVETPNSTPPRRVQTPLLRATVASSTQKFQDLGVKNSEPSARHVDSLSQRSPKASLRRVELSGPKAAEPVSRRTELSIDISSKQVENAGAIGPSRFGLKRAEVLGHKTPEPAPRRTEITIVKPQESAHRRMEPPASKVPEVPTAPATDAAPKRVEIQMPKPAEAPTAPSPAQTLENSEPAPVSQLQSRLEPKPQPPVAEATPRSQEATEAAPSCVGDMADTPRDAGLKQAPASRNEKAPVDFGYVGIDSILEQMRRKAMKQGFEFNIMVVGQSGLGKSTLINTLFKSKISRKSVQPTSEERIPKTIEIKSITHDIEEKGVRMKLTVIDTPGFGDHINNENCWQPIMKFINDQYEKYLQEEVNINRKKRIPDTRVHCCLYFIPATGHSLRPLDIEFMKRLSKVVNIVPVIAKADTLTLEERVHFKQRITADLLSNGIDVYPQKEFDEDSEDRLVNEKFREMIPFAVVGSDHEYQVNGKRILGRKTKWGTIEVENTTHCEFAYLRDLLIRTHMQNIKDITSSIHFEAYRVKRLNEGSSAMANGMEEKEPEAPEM

binding [1]: no binding
binding [2]: no binding
B1: human septin 7, Q16181-1 1-437 (protein)
chain: MSVSARSAAAEERSVNSSTMVAQQKNLEGYVGFANLPNQVYRKSVKRGFEFTLMVVGESGLGKSTLINSLFLTDLYSPEYPGPSHRIKKTVQVEQSKVLIKEGGVQLLLTIVDTPGFGDAVDNSNCWQPVIDYIDSKFEDYLNAESRVNRRQMPDNRVQCCLYFIAPSGHGLKPLDIEFMKRLHEKVNIIPLIAKADTLTPEECQQFKKQIMKEIQEHKIKIYEFPETDDEEENKLVKKIKDRLPLAVVGSNTIIEVNGKRVRGRQYPWGVAEVENGEHCDFTILRNMLIRTHMQDLKDVTNNVHYENYRSRKLAAVTYNGVDNNKNKGQLTKSPLAQMEEERREHVAKMKKMEMEMEQVFEMKVKEKVQKLKDSEAELQRRHEQMKKNLEAQHKELEEKRRQFEDEKANWEAQQRILEQQNSSRTLEKNKKKGKIF

binding [3]: no binding
B2: human septin 9, transcript variant 3, protein isoform c, full length, Q9UHD8-2 1-568 (protein)
chain: MERDRISALKRSFEVEEVETPNSTPPRRVQTPLLRATVASSTQKFQDLGVKNSEPSARHVDSLSQRSPKASLRRVELSGPKAAEPVSRRTELSIDISSKQVENAGAIGPSRFGLKRAEVLGHKTPEPAPRRTEITIVKPQESAHRRMEPPASKVPEVPTAPATDAAPKRVEIQMPKPAEAPTAPSPAQTLENSEPAPVSQLQSRLEPKPQPPVAEATPRSQEATEAAPSCVGDMADTPRDAGLKQAPASRNEKAPVDFGYVGIDSILEQMRRKAMKQGFEFNIMVVGQSGLGKSTLINTLFKSKISRKSVQPTSEERIPKTIEIKSITHDIEEKGVRMKLTVIDTPGFGDHINNENCWQPIMKFINDQYEKYLQEEVNINRKKRIPDTRVHCCLYFIPATGHSLRPLDIEFMKRLSKVVNIVPVIAKADTLTLEERVHFKQRITADLLSNGIDVYPQKEFDEDSEDRLVNEKFREMIPFAVVGSDHEYQVNGKRILGRKTKWGTIEVENTTHCEFAYLRDLLIRTHMQNIKDITSSIHFEAYRVKRLNEGSSAMANGMEEKEPEAPEM

binding [4]: binds
binding [5]: binds
binding [6]: binds
binding [7]: binds
binding [8]: no binding
binding [9]: binds
B3: human septin 6 (protein, UniProt Q14141-1 1-434)
chain: MAATDIARQVGEGCRTVPLAGHVGFDSLPDQLVNKSVSQGFCFNILCVGETGLGKSTLMDTLFNTKFEGEPATHTQPGVQLQSNTYDLQESNVRLKLTIVSTVGFGDQINKEDSYKPIVEFIDAQFEAYLQEELKIRRVLHTYHDSRIHVCLYFIAPTGHSLKSLDLVTMKKLDSKVNIIPIIAKADAISKSELTKFKIKITSELVSNGVQIYQFPTDDESVAEINGTMNAHLPFAVIGSTEELKIGNKMMRARQYPWGTVQVENEAHCDFVKLREMLIRVNMEDLREQTHTRHYELYRRCKLEEMGFKDTDPDSKPFSLQETYEAKRNEFLGELQKKEEEMRQMFVQRVKEKEAELKEAEKELHEKFDRLKKLHQDEKKKLEDKKKSLDDEVNAFKQRKTAAELLQSQGSQAGGSQTLKRDKEKKNNPWLCTE
